Reference: US7893299B2, “Interleukin-1 and tumor necrosis factor-αmodulators; syntheses of such modulators and methods of using such modulators” (Nereus Pharmaceuticals, Inc., priority 2005, dated 2011)

Legend:
[1] = system: TNF production in RAW264.7 cells; experiment: RAW264.7 LPS/TNF assay (ELISA); assay type: cell-based, murine; settings: 4 hr; for inhibition at 10 µM: Mus musculus, RAW264.7, LPS 10 ng/ml, read-out: Inhibition (%) at 10 μM (TNF-α inhibitory activity)
Protocol: After 4 hr LPS stimulation, supernatants were harvested and analyzed for TNF production by ELISA.
DMSO was used as control. Identical sets of plates without LPS stimulation were used for the cytotoxicity assessment.
Various concentrations of NPI-1387 prepared in DMSO were added to cells 1 hr before LPS (10 ng/ml) stimulation. DMSO was used as a control. After 4 hr of LPS stimulation, supernatants were harvested and the level of TNF-α from each sample was analyzed by using the human TNF-α cytoset ELISA kit (Biosource Internationals). IC50 values (the drug concentration at which 50% of the maximal observed TNF-α production is inhibited) were determined using a standard sigmoidal dose response curve fitting algorithm (Prism 2.0, GraphPad Software Inc).

[2] = system: IL-1 synthesis in RAW 264.7 cells; experiment: SAC-induced IL-1 synthesis in RAW 264.7 cells; assay type: cell-based, Murine
Protocol: (§1) Murine macrophage cells RAW 264.7 (1×10^6/ml) were pretreated for 30-60 minutes with varying doses of the synthetic compound of Formula (I) and a panel of analogs (diluted in 0.5% DMSO) prior to stimulation with various agents such as lipopolysaccharide (LPS) or a gram positive agent like heat-killed Staph aureus (SAC). Supernatants collected over a 72-hour period will be assayed for the levels of TNF-α, IL-1, IL-6, IL-10, IL-12 and other cytokines either by elisa or bioassay. Additional studies to evaluate the effects of the synthetic compound of Formulae (I), (II), (IIA) and (IIB) on cytokine signaling pathways such as, for example, Caspase-activity (Nr-1, Nr.3), transcription factors such as NF-κB, MAP-kinase activity (p38, ERK and JNK) will also be performed.

[3] = system: TNF-α synthesis in RAW 264.7 cells; experiment: SAC-induced TNF-α synthesis in RAW 264.7 cells; assay type: cell-based, Murine
Protocol: as §1

[4] = system: IL-6 synthesis in RAW 264.7 cells; experiment: SAC-induced IL-6 synthesis in RAW 264.7 cells; assay type: cell-based, Murine
Protocol: as §1

[5] = system: TNF-α synthesis in RAW 264.7 cells; experiment: LPS-induced TNF-α synthesis in RAW 264.7 cells; assay type: cell-based, Murine
Protocol: as §1

RAW264.7 cells = experiment: RAW264.7 cell viability / apoptosis, propidium iodide flow cytometry; assay type: cell-based, Murine; settings: 10 μM
Protocol: To determine whether the test compounds induce apoptosis, flow cytometric measurement of propidium iodide (PI) staining was performed after incubation of the cells with 0.005% PI, following published protocols. Cells were analyzed in a FACScan cytometer equipped with a 25-mW argon laser. The quantification of the percentage of apoptotic cells was calculated using a dot plot of the forward scatter against the PI fluorescence. Cell sorting and analysis of viable and apoptotic populations was performed to confirm the criteria of gating.

Work on `C=C[C@@]1(C)CC=C2[C@@H](CC[C@@H]3[C@](C)(C(=O)N4CCCC4)CCC[C@@]23C)C1` yielded an inhibition at 10 µM [1] of 33.4%.

`C=C[C@@]1(C)CC=C2[C@@H](CC[C@@H]3[C@](C)(C(=O)NCC(C)C)CCC[C@@]23C)C1` gave an inhibition at 10 µM [1] of 41.9%.

`C=C[C@@]1(C)CC=C2[C@@H](CC[C@@H]3[C@](C)(C(=O)NCCCCCC)CCC[C@@]23C)C1` showed an inhibition at 10 µM [1] of 41.4%.

For `C=C[C@@]1(C)CC=C2[C@@H](CC[C@@H]3[C@](C)(C(=O)NCc4ccccc4)CCC[C@@]23C)C1`, the inhibition at 10 µM [1] was 56.9%.

`C=C[C@@]1(C)CC=C2[C@@H](CC[C@@H]3[C@](C)(C(=O)NCC(=O)O)CCC[C@@]23C)C1` gave an inhibition at 10 µM [1] of 6.3%.

`C=C[C@@]1(C)CC=C2[C@@H](CC[C@@H]3[C@](C)(C(=O)NCCC(=O)O)CCC[C@@]23C)C1` showed an inhibition at 10 µM [1] of 10.3%.

`C=C[C@@]1(C)CC=C2[C@@H](CC[C@@H]3[C@](C)(C(=O)N[C@H](C)C(=O)O)CCC[C@@]23C)C1` showed an inhibition at 10 µM [1] of 41.6%.

Work on `C=C[C@@]1(C)CC=C2[C@@H](CC[C@@H]3[C@](C)(C(=O)N[C@@H](C)C(=O)O)CCC[C@@]23C)C1` yielded an inhibition at 10 µM [1] of 96.7%.

In the case of `C=C[C@@]1(C)CC=C2[C@@H](CC[C@@H]3[C@](C)(C(=O)N[C@H](C(=O)O)C(C)C)CCC[C@@]23C)C1`, the inhibition at 10 µM [1] was 88%.

`C=C[C@@]1(C)CC=C2[C@@H](CC[C@@H]3[C@](C)(C(=O)N[C@@H](CC(C)C)C(=O)O)CCC[C@@]23C)C1` was tested, and the inhibition at 10 µM [1] was 81%.

Work on `C=C[C@@]1(C)CC=C2[C@@H](CC[C@@H]3[C@](C)(C(=O)N[C@H](C(=O)O)c4ccccc4)CCC[C@@]23C)C1` yielded an inhibition at 10 µM [1] of 95%.

For `C=C[C@@]1(C)CC=C2[C@@H](CC[C@@H]3[C@](C)(C(=O)N[C@@H](Cc4ccccc4)C(=O)O)CCC[C@@]23C)C1`, the inhibition at 10 µM [1] was 85%.

`C=C[C@@]1(C)CC=C2[C@@H](CC[C@@H]3[C@](C)(CO)CCC[C@@]23C)C1` gave an inhibition at 10 µM [1] of 28.6%.

Work on `C=C[C@@]1(C)CC=C2[C@@H](CC[C@H]3[C@@]2(C)CCC[C@@]3(C)C(C)O)C1` (stereo partly drawn) yielded an inhibition at 10 µM [1] of 41.9%.

With `C=CC(O)[C@]1(C)CCC[C@@]2(C)C3=CC[C@](C)(C=C)C[C@@H]3CC[C@@H]21` (stereo partly drawn) the inhibition at 10 µM [1] was 27.6%.

For `C=C[C@@]1(C)CC=C2[C@@H](CC[C@H]3[C@@]2(C)CCC[C@@]3(C)C(O)/C=C/C)C1` (stereo partly drawn), the inhibition at 10 µM [1] was 48%.

`C=C[C@@]1(C)CC=C2[C@@H](CC[C@H]3[C@@]2(C)CCC[C@@]3(C)C(O)c2ccccc2)C1` (stereo partly drawn) gave an inhibition at 10 µM [1] of 23.1%.

For `C=C[C@@]1(C)CC=C2[C@@H](CC[C@@H]3[C@](C)(C(C)=O)CCC[C@@]23C)C1`, the inhibition at 10 µM [1] was 7%.

`C=CC(=O)[C@]1(C)CCC[C@@]2(C)C3=CC[C@](C)(C=C)C[C@@H]3CC[C@H]12` showed an inhibition at 10 µM [1] of 96%.

`C=C[C@@]1(C)CC=C2[C@@H](CC[C@@H]3[C@](C)(C(=O)/C=C/C)CCC[C@@]23C)C1` gave an inhibition at 10 µM [1] of 29%.

In the case of `C=C[C@@]1(C)CC=C2[C@@H](CC[C@@H]3[C@](C)(C(=O)c4ccccc4)CCC[C@@]23C)C1`, the inhibition at 10 µM [1] was 6.9%.

`C=C[C@@]1(C)CC=C2[C@@H](CC[C@H]3[C@@]2(C)CCC[C@@]3(C)/C=N/O)C1` was tested, and the inhibition at 10 µM [1] was 75.9%.

`C=C[C@@]1(C)CC=C2[C@@H](CC[C@H]3[C@@]2(C)CCC[C@@]3(C)/C=N/OC)C1` was tested, and the “Inhibition (%) at 10 μM (TNF-α inhibitory activity)” value ([1]; LPS 10 ng/ml) was “No Activity”.

For `C=C[C@@]1(C)CC=C2[C@@H](CC[C@H]3[C@@]2(C)CCC[C@@]3(C)/C=N/OCc2ccccc2)C1`, the inhibition at 10 µM [1] was 13%.

`C=C[C@@]1(C)CC=C2[C@@H](CC[C@H]3[C@@]2(C)CCC[C@@]3(C)/C=N/OCc2ccc(F)cc2)C1` gave an inhibition at 10 µM [1] of 6%.

Compound `C=C[C@@]1(C)CC=C2[C@@H](CC[C@@H]3[C@](C)(COS(C)(=O)=O)CCC[C@@]23C)C1` has an inhibition at 10 µM [1] of 74%.

With `C=C[C@@]1(C)CC=C2[C@@H](CC[C@@H]3[C@](C)(COS(=O)(=O)c4ccccc4)CCC[C@@]23C)C1` the inhibition at 10 µM [1] was 32%.

`C=C[C@@]1(C)CC=C2[C@@H](CC[C@@H]3[C@](C)(COS(=O)(=O)c4ccc(OC)cc4)CCC[C@@]23C)C1` gave an inhibition at 10 µM [1] of 32%.

`C=C[C@@]1(C)CC=C2[C@@H](CC[C@@H]3[C@](C)(COS(=O)(=O)c4ccc(I)cc4)CCC[C@@]23C)C1` was tested, and the inhibition at 10 µM [1] was 28%.

For `C=C[C@@]1(C)CC=C2[C@@H](CC[C@@H]3[C@](C)(COS(=O)(=O)c4ccc(C(=O)O)cc4)CCC[C@@]23C)C1`, the inhibition at 10 µM [1] was 41%.

`C=C[C@@]1(C)CC=C2[C@@H](CC[C@@H]3[C@](C)(COC(=O)CN4CCNCC4)CCC[C@@]23C)C1` showed an inhibition at 10 µM [1] of 48%.

For `C=C[C@@]1(C)CC=C2[C@@H](CC[C@@H]3[C@](C)(COC(=O)CN4CCN(C(C)=O)CC4)CCC[C@@]23C)C1`, the inhibition at 10 µM [1] was 18%.

`C=C[C@@]1(C)CC=C2[C@@H](CC[C@@H]3[C@](C)(COC(=O)CN4CCN(S(C)(=O)=O)CC4)CCC[C@@]23C)C1` gave an inhibition at 10 µM [1] of 17%.

With `C=C[C@@]1(C)CC=C2[C@@H](CC[C@@H]3[C@](C)(COC(=O)CN4CCN(S(=O)(=O)c5ccc(C)cc5)CC4)CCC[C@@]23C)C1` the inhibition at 10 µM [1] was 11%.

With `C=C[C@@]1(C)CC=C2[C@@H](CC[C@@H]3[C@](C)(COC(=O)CN4CCN(S(=O)(=O)c5ccc(OC)cc5)CC4)CCC[C@@]23C)C1` the inhibition at 10 µM [1] was 32%.

Work on `C=C[C@@]1(C)CC=C2[C@@H](CC[C@@H]3[C@](C)(COC(=O)CCC(=O)O)CCC[C@@]23C)C1` yielded an inhibition at 10 µM [1] of 68.5%.

`C=C[C@@]1(C)CC=C2[C@@H](CC[C@@H]3[C@](C)(COC(=O)CC(C)(C)C(=O)O)CCC[C@@]23C)C1` showed an inhibition at 10 µM [1] of 86%.

In the case of `C=C[C@@]1(C)CC=C2[C@@H](CC[C@@H]3[C@](C)(COC(=O)CCC(C)(C)C(=O)O)CCC[C@@]23C)C1`, the inhibition at 10 µM [1] was 30%.

Compound `C=C[C@@]1(C)CC=C2[C@@H](CC[C@@H]3[C@](C)(COC(=O)CC(C)(C)CC(=O)O)CCC[C@@]23C)C1` has an inhibition at 10 µM [1] of 81.9%.

Compound `C=C[C@@]1(C)CC=C2[C@@H](CC[C@@H]3[C@](C)(COC(=O)COCC(=O)O)CCC[C@@]23C)C1` has an inhibition at 10 µM [1] of 11.5%.

Compound `C=C[C@@]1(C)CC=C2[C@@H](CC[C@@H]3[C@](C)(C(=O)O)CCC[C@@]23C)C1` [Formula (I), acanthoic acid, reference compound] has an IL-1α ([2]; compound at 0.1 μg/ml) of 1350 pg/mL, an IL-1α ([2]; compound at 1 μg/ml) of 1050 pg/mL and an IL-1α ([2]; compound at 10 μg/ml) of 350 pg/mL. It also gave a TNF-α ([3]; compound at 0.1 μg/ml) of 410 ng/mL, a TNF-α ([3]; compound at 1 μg/ml) of 275 ng/mL and a TNF-α ([3]; compound at 10 μg/ml) of 165 ng/mL. It also gave an IL-6 ([4]; compound at 0.1 μg/ml) of 65 ng/mL, an IL-6 ([4]; compound at 1 μg/ml) of 90 ng/mL and an IL-6 ([4]; compound at 10 μg/ml) of 80 ng/mL. It also gave a TNF-α ([5]; compound at 0.1 μg/ml) of 108 ng/mL, a TNF-α ([5]; compound at 1 μg/ml) of 67 ng/mL and a TNF-α ([5]; compound at 10 μg/ml) of 50 ng/mL.

For `C=C[C@@]1(C)CCC=C2[C@H]1CC[C@@H]1[C@](C)(C(=O)NC3CCCCC3)CCC[C@@]21C` [Formula (IIB-A1), N-Cyclohexylamide Derivative of TTL], the RAW264.7 cell viability (RAW264.7 cells) was “did not affect”.

In the case of `C=C[C@@]1(C)CCC=C2[C@H]1CC[C@@H]1[C@](C)(C(=O)N3CCOCC3)CCC[C@@]21C` [LT-1-85], the RAW264.7 cell viability (RAW264.7 cells) was “did not affect”.
